ChEMBL document CHEMBL4888484, “Replenishing the malaria drug discovery pipeline: Screening and hit evaluation of the MMV Hit Generation Library 1 (HGL1) against asexual blood stage Plasmodium falciparum ,using a nano luciferase reporter read-out” (2022)
The whole screen tested about 150,000 compounds, of which about 540 (0.36%) showed an effect of 50% or more. Some of the results follow.

Tested on: Plasmodium falciparum
Assay: Primary screen in NF54 nanoGlo assay, in single point, at 2uM, 72h; a lower Z score goes with more inhibition
Type: functional, Erythrocyte
Conditions: timepoint 72 hour

Compound | % Inhibition [%] | Z score
COc1ccc(CNS(=O)(=O)C[C@H]2CCOC2)cc1OC | -13 | 1.49
CCCc1ccc(CN2CC[C@H](NC(=O)c3cc(C)on3)[C@@H](O)C2)o1 | -10 | 1.24
Cc1cccc(NC(=O)CN2CCN(C(=O)c3cocn3)CC2)c1C | 30 | -3.34
Cc1nsc(N[C@@H]2C=C[C@H](CO)C2)n1 | 34 | -0.65
CC(C)(C)[C@@H](O)CCNC(=O)Cc1cccs1 | -4 | 0.57
c1ccc(CCN2CCC[C@@]3(CCN(c4cnccn4)C3)C2)cc1 | -9 | 1.14
COc1ccc(-c2noc(-c3ccc(=O)n(CC(=O)Nc4ccc(C)c(Cl)c4)c3)n2)cc1 | -7 | 1.05
NS(=O)(=O)c1ccc(-n2nc(CC3CC3)nc2Cc2cccnc2)cc1 | -5 | 0.91
CCCCc1nn(CC(=O)N2CCC[C@H](O)C2)c(=O)n1Cc1ccccc1 | -4 | 0.79
Cc1ccc(Cc2ccccc2C(=O)N[C@H]2COCC[C@@H]2O)cc1 | -5 | 1.06
CCn1ncc(CNc2nc(-c3cnn(CC)c3C)cc(C(F)F)n2)c1C | 30 | -3.4
C[C@H]1C(=O)N[C@@H](Cc2ccccc2)C(=O)NCCN(Cc2ccncc2)CC(=O)N[C@@H](Cc2c[nH]c3ccccc23)C(=O)N1C | -14 | 2.64
Cn1ccnc1CC[C@H]1CCCCN1Cc1ccc(-c2cc[nH]n2)o1 | -4 | 0.67
COc1ccc(CC(=O)N2C[C@H]3CC[C@@H](C2)N(Cc2ccccc2)C3=O)cc1 | 8 | -1.12
CCCc1cc(C(=O)N2CCO[C@H](c3ccccc3)C2)[nH]n1 | -8 | 1.39
CC(C)c1nsc(CN2CC[C@H](NC(=O)c3ccccc3)C2)n1 | -8 | 1.26
CC(=O)N1CCN(Cc2ccccc2NC(=O)c2oc(CC(C)C)nc2C)CC1 | -2 | 0.27
CC1CCN(C(=O)c2cccc(NC(=O)CC3CCCC3)c2)CC1 | -14 | 1.98
COc1ccc(NC(=O)Cn2cc(C(=O)c3ccncc3)c(=O)c3cc(Br)ccc32)cc1 | -4 | 0.64
Cc1c(Br)c(C(=O)N[C@@H]2CCCOC2)nn1C | -3 | 0.34
FC(F)(F)c1nnc(NCc2ccc3c(c2)OCCO3)s1 | -3 | 0.3
O=C(CN1CCCC[C@@H]1Cn1cncn1)Nc1nncs1 | -3 | 0.5
CCCCN(CC)c1ncc(S(=O)(=O)c2cccc(C)c2)c(N)n1 | 34 | -3.86
CC(C)CN1CC2(CCN(C(=O)C(=O)c3ccco3)CC2)CC1=O | -5 | 0.88
COc1ccc2nc(C(=O)N3CCN(C4CCCCC4)CC3)cn2n1 | -5 | 0.78
CC12CN(C(=O)c3ccccc3)C3(C#N)CC1CCC23C (stereo not drawn) | 4 | -0.57
COCCOCC(=O)N1CC[C@](C)(O)[C@H](Cc2ccccc2)C1 | 2 | -0.47

Compound | % Inhibition [%] | Z score
OC1CCCC1Nc1cncc(Br)c1 (stereo not drawn) | -4 | 0.44
Cn1cc(C(=O)NC2CCN(Cc3nnc(C(C)(C)C)o3)CC2)cn1 | -6 | 1
Cc1nnc2ccc(NC3CCCC3C(N)=O)nn12 (stereo not drawn) | -9 | 1.1
CCCn1cc(-c2ccnc(NC3CC(C)(C)NC(C)(C)C3)n2)c(C)n1 | 27 | -2.57
Cc1ccccc1N1CCN(C(=O)c2c(C)cc(C)n2Cc2ccc(F)cc2)CC1 | -9 | 0.89
CNc1cc([C@H]2C[C@@H](NS(=O)(=O)CCOc3ccccc3F)C2)ncn1 | 0 | -0.08
CC1(C(=O)N2CCCC3CCCC32)CCCC1 (stereo not drawn) | -8 | 1.21
CCC(C)C1CN(Cc2ccc(C)nc2)CCN1C(=O)C(C)N (stereo not drawn) | -4 | 0.37
O=C(O)C1(C(=O)NCC2CCN(Cc3ccncc3)CC2)CCCCCC1 | 13 | -1.6
N#Cc1cc(N[C@H]2CCCC[C@H]2CCO)ccn1 | -6 | 1.19
O=C(NCc1ccccn1)c1ccnc(OCC2CC2)c1 | -10 | 1.94
CCc1ccc(CNc2nc3[nH]c(CNc4cccc(Cl)c4)cc(=O)n3n2)cc1 | -3 | 0.53
C=CCCN[C@@](C)(C(N)=O)c1cccc(Cl)c1 | -8 | 1.22
Oc1cc(-c2nc3ccccc3s2)cc2c1OCCNC2 | 3 | -0.57
Cc1cnc(N2CC3(CCOCC3)C[C@@H]2C)s1 | -7 | 1.3
C[C@@H](C(=O)Nc1ncc[nH]1)c1ccc2c(c1)[nH]c1ccc(Cl)cc12 | 69 | -1.75
CN(C)C(=O)c1ccnc(NC(=O)c2cc(C3CCCCC3)n[nH]2)c1 | 8 | -0.85
CN(C)c1ccc2c(c1)OCCN2C(=O)c1ccc2c(c1)C(=O)N(C[C@H]1CCCO1)C2=O | -12 | 2.28
CC(C)c1nccc(C(=O)N2CCn3cncc3C2)n1 | -3 | 0.68
Cc1cc(C)nc(NCC(=O)Nc2ncc(C)s2)n1 | -12 | 2.21
CCOC(=O)[C@H]1CCCN1c1cc(C(=O)OC)ncn1 | -12 | 1.6
CNCCN(C)C(=O)Cc1c[nH]c(=O)n(C)c1=O | -9 | 0.95
Cc1ccc2c(c1)c(=O)c(C(=O)NCCCn1nnc3ccccc31)cn2C | 0 | -0.02
Cc1cc(C(=O)N2CCC[C@H](OC(=O)N(C)C)C2)c(C(F)(F)F)o1 | -5 | 0.67
Cc1cccc(S(=O)(=O)NC(=O)CCn2cccn2)c1Cl | -5 | 0.72
Cc1nc2c(CCNC(=O)[C@H]3CCOC4(CCC4)C3)cccc2o1 | 17 | -1.94
CC[C@H](NC(=O)CCc1n[nH]c(C)c1C)c1ccc(S(C)(=O)=O)cc1 | -15 | 2.77
